Laboratory results from the supplement of paper PMC8728848.
Some of the results follow.

What was measured:
Test in all cases: glycan array binding signal (z-score within array); higher = stronger binding
Conditions in all cases: glycan notation: IUPAC condensed, linker removed
Gal6S(b1-4)Glc = target: Gal6S(b1-4)Glc
Method in brief: (§1)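 Arrays were curated from the Consortium for Functional Glycomics database, 3228 in total, and kept only where the protein sequence was available. Binding is expressed as a within-array Z-score. This score was averaged across arrays of the same protein sequence at different concentrations or buffers and across linkers, and negative values can be read as non-binding.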

Gal6S(b1-4)Glc6S = target: Gal6S(b1-4)Glc6S
Method in brief: as §1

Gal6S(b1-4)GlcNAc = target: Gal6S(b1-4)GlcNAc
Method in brief: as §1

GalNAc(a1-3)Gal = target: GalNAc(a1-3)Gal
Method in brief: as §1

GalNAc(a1-3)GalNAc = target: GalNAc(a1-3)GalNAc
Method in brief: as §1

[1] = target: GalNAc(b1-3)Gal(a1-4)Gal(b1-4)GlcNAc
Method in brief: as §1

GalNAc(b1-4)GlcNAc = target: GalNAc(b1-4)GlcNAc
Method in brief: as §1

Glc(a1-4)Glc = target: Glc(a1-4)Glc
Method in brief: as §1

Glc(a1-6)Glc(a1-6)Glc = target: Glc(a1-6)Glc(a1-6)Glc
Method in brief: as §1

Glc(b1-4)Glc = target: Glc(b1-4)Glc
Method in brief: as §1

Glc(b1-6)Glc = target: Glc(b1-6)Glc
Method in brief: as §1

GlcA(b1-3)Gal = target: GlcA(b1-3)Gal
Method in brief: as §1

GlcA(b1-6)Gal = target: GlcA(b1-6)Gal
Method in brief: as §1

[2] = target: GlcNAc(a1-3)Gal(b1-4)GlcNAc
Method in brief: as §1

[3] = target: GlcNAc(a1-6)Gal(b1-4)GlcNAc
Method in brief: as §1

[4] = target: GlcNAc(b1-2)Gal(b1-3)GlcNAc
Method in brief: as §1

[5] = target: GlcNAc(b1-2)Man(a1-3)[GlcNAc(b1-2)Man(a1-6)]Man(b1-4)GlcNAc(b1-4)GlcNAc
Method in brief: as §1

GlcNAc(b1-3)Gal = target: GlcNAc(b1-3)Gal
Method in brief: as §1

[6] = target: GlcNAc(b1-3)Gal(b1-3)GalNAc
Method in brief: as §1

GlcNAc(b1-3)Gal(b1-4)Glc = target: GlcNAc(b1-3)Gal(b1-4)Glc
Method in brief: as §1

[7] = target: GlcNAc(b1-3)Gal(b1-4)GlcNAc
Method in brief: as §1

[8] = target: GlcNAc(b1-3)Gal(b1-4)GlcNAc(b1-3)Gal(b1-4)GlcNAc
Method in brief: as §1

GlcNAc(b1-3)GalNAc = target: GlcNAc(b1-3)GalNAc
Method in brief: as §1

[9] = target: GlcNAc(b1-3)[GlcNAc(b1-4)][GlcNAc(b1-6)]GlcNAc
Method in brief: as §1

[10] = target: GlcNAc(b1-3)[GlcNAc(b1-6)]Gal(b1-4)GlcNAc
Method in brief: as §1

[11] = target: GlcNAc(b1-3)[GlcNAc(b1-6)]GlcNAc
Method in brief: as §1

[12] = target: GlcNAc(b1-4)Gal(b1-4)GlcNAc
Method in brief: as §1

[13] = target: GlcNAc(b1-4)GlcNAc(b1-4)GlcNAc
Method in brief: as §1

[14] = target: GlcNAc(b1-4)GlcNAc(b1-4)GlcNAc(b1-4)GlcNAc(b1-4)GlcNAc
Method in brief: as §1

[15] = target: GlcNAc(b1-4)GlcNAc(b1-4)GlcNAc(b1-4)GlcNAc(b1-4)GlcNAc(b1-4)GlcNAc
Method in brief: as §1

[16] = target: GlcNAc(b1-4)[GlcNAc(b1-6)]GalNAc
Method in brief: as §1

[17] = target: GlcNAc(b1-6)Gal(b1-4)GlcNAc
Method in brief: as §1

GlcNAc(b1-6)GalNAc = target: GlcNAc(b1-6)GalNAc
Method in brief: as §1

Kdn(a2-3)Gal(b1-3)GlcNAc = target: Kdn(a2-3)Gal(b1-3)GlcNAc
Method in brief: as §1

Kdn(a2-3)Gal(b1-4)GlcNAc = target: Kdn(a2-3)Gal(b1-4)GlcNAc
Method in brief: as §1

[18] = target: Man(a1-2)Man(a1-2)Man(a1-3)Man
Method in brief: as §1

[19] = target: Man(a1-2)Man(a1-2)Man(a1-3)[Man(a1-2)Man(a1-3)[Man(a1-2)Man(a1-6)]Man(a1-6)]Man(b1-4)GlcNAc(b1-4)GlcNAc
Method in brief: as §1

[20] = target: Man(a1-2)Man(a1-2)Man(a1-3)[Man(a1-2)Man(a1-6)[Man(a1-3)]Man(a1-6)]Man(b1-4)GlcNAc(b1-4)GlcNAc
Method in brief: as §1

[21] = target: Man(a1-2)Man(a1-2)Man(a1-6)[Man(a1-3)]Man
Method in brief: as §1

Man(a1-2)Man(a1-3)Man = target: Man(a1-2)Man(a1-3)Man
Method in brief: as §1

[22] = target: Man(a1-2)Man(a1-3)[Man(a1-2)Man(a1-6)]Man
Method in brief: as §1

[23] = target: Man(a1-2)Man(a1-3)[Man(a1-3)[Man(a1-6)]Man(a1-6)]Man(b1-4)GlcNAc(b1-4)GlcNAc
Method in brief: as §1

[24] = target: Man(a1-2)Man(a1-3)[Man(a1-6)]Man(a1-6)[Man(a1-2)Man(a1-3)]Man(b1-4)GlcNAc(b1-4)GlcNAc
Method in brief: as §1

Man(a1-3)[Man(a1-6)]Man = target: Man(a1-3)[Man(a1-6)]Man
Method in brief: as §1

[25] = target: Man(a1-3)[Man(a1-6)]Man(a1-6)[Man(a1-3)]Man(b1-4)GlcNAc(b1-4)GlcNAc
Method in brief: as §1

B1: HMGB1 (Homo sapiens), P09429 (protein)
chain: MGKGDPKKPRGKMSSYAFFVQTCREEHKKKHPDASVNFSEFSKKCSERWKTMSAKEKGKFEDMAKADKARYEREMKTYIPPKGETKKKFKDPNAPKRPPSAFFLFCSEYRPKIKGEHPGLSIGDVAKKLGEMWNNTAADDKQPYEKKAAKLKEKYEKDIAAYRAKGKPDAAKKGVVKAEKSKKKKEEEEDEEDEEDEEEEEDEEDEDEEEDDDDE
glycan array binding signal (z-score) (Gal6S(b1-4)Glc): -0.252
glycan array binding signal (z-score) (Gal6S(b1-4)Glc6S): 1.42
glycan array binding signal (z-score) (Gal6S(b1-4)GlcNAc): 0.184
glycan array binding signal (z-score) (GalNAc(a1-3)Gal): -0.403
glycan array binding signal (z-score) (GalNAc(a1-3)GalNAc): -0.292
glycan array binding signal (z-score) [1]: -0.482
glycan array binding signal (z-score) (GalNAc(b1-4)GlcNAc): -0.432
glycan array binding signal (z-score) (Glc(a1-4)Glc): -0.36
glycan array binding signal (z-score) (Glc(a1-6)Glc(a1-6)Glc): -0.364
glycan array binding signal (z-score) (Glc(b1-4)Glc): -0.365
glycan array binding signal (z-score) (Glc(b1-6)Glc): -0.253
glycan array binding signal (z-score) (GlcA(b1-3)Gal): -0.1
glycan array binding signal (z-score) (GlcA(b1-6)Gal): 0.008
glycan array binding signal (z-score) [2]: -0.438
glycan array binding signal (z-score) [3]: -0.299
glycan array binding signal (z-score) [4]: -0.455
glycan array binding signal (z-score) [5]: 0.079
glycan array binding signal (z-score) (GlcNAc(b1-3)Gal): 0.11
glycan array binding signal (z-score) [6]: -0.478
glycan array binding signal (z-score) (GlcNAc(b1-3)Gal(b1-4)Glc): -0.22
glycan array binding signal (z-score) [7]: 0.445
glycan array binding signal (z-score) [8]: -0.417
glycan array binding signal (z-score) (GlcNAc(b1-3)GalNAc): 0.247
glycan array binding signal (z-score) [9]: -0.309
glycan array binding signal (z-score) [10]: -0.443
glycan array binding signal (z-score) [11]: -0.358
glycan array binding signal (z-score) [12]: 0.617
glycan array binding signal (z-score) [13]: -0.322
glycan array binding signal (z-score) [14]: 0.146
glycan array binding signal (z-score) [15]: -0.286
glycan array binding signal (z-score) [16]: -0.433
glycan array binding signal (z-score) [17]: -0.489
glycan array binding signal (z-score) (GlcNAc(b1-6)GalNAc): -0.36
glycan array binding signal (z-score) (Kdn(a2-3)Gal(b1-3)GlcNAc): -0.363
glycan array binding signal (z-score) (Kdn(a2-3)Gal(b1-4)GlcNAc): 1.47
glycan array binding signal (z-score) [18]: -0.413
glycan array binding signal (z-score) [19]: -0.292
glycan array binding signal (z-score) [20]: -0.385
glycan array binding signal (z-score) [21]: 1.21
glycan array binding signal (z-score) (Man(a1-2)Man(a1-3)Man): -0.124
glycan array binding signal (z-score) [22]: 0.14
glycan array binding signal (z-score) [23]: -0.414
glycan array binding signal (z-score) [24]: -0.316
glycan array binding signal (z-score) (Man(a1-3)[Man(a1-6)]Man): -0.418
glycan array binding signal (z-score) [25]: -0.404
